“And” between values parts separate entries of the source, which are not always exact repeats. Equal entries are not always repeated. Hit rate of the full screen: of about 410,000 compounds, about 5,000 (1.2%) were called active. This list was built around the results that the source calls inconclusive (neither active nor inactive); the mix of calls is not that of the screen. Calls come from the whole dose curve; as a rule, active = well fitted inhibition curve with a large enough effect; inconclusive = small, poorly fitted or top-dose-only effect; inactive = no such curve, though single readings can be large or run the other way. Potencies beside an inconclusive call are fits to weak or partial responses and may not hold up.
assay: qHTS for Inhibitors of TGF-b; details: HepG2 CAGA-GFP TGF-b/SMAD3 reporter, GFP fluorescence, 18 h, TGF-beta stimulated, 500 pg/mL final; series mostly up to 46.1 µM; note: nearly all actives have a fitted effect of over 65% in size
Procedure, shortened: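 Per well, imaged GFP fluorescence of HEPG2 CAGA-GFP cells gives the signal; cells get compound, then TGF-beta (500 pg/mL final), 18 h at 37 degrees C; %Activity versus -TGF-beta and +DMSO controls.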
Potency is the fitted concentration of half-maximal effect; tags give direction and shape of the fitted curve.

Structure (SMILES)	Potency
CCN(CCS(=O)(=O)c1ccc(Br)cc1)Cc1nc2ccccc2c(=O)[nH]1	inactive
CC1(C)Cc2c(sc3nc(-c4ccccc4)n(N)c(=O)c23)CO1	inactive
COC(=O)[C@]1(Cc2ccccc2)N[C@H](CN(C)S(=O)(=O)c2ccc(C(C)(C)C)cc2)[C@@H]2C(=O)N(Cc3ccccc3)C(=O)[C@@H]21	inconclusive: 3.16 µM [inhibitor, full curve, poor fit]
CCC(CC)C(=O)N1CCN(c2cccc(C)c2C)CC1	inconclusive: 35.5 µM [inhibitor, single point]
COC(=O)c1ccc(C2c3c(oc4ccc(C)cc4c3=O)C(=O)N2Cc2ccc3c(c2)OCO3)cc1 (configuration not stated)	inconclusive: 22.4 µM [inhibitor, single point]
O=[N+]([O-])c1cccc(S(=O)(=O)Nc2ccccn2)c1	inactive
Cc1ccc(SCCN2CCN(CC(C)C)CCC2=O)cc1	inconclusive: 3.16 µM [inhibitor, single point] and inconclusive: 31.6 µM [inhibitor, single point]
CCN(CC(=O)NC(C)C)C(=O)C(CCSC)NC(=O)c1cccc(C)c1 (configuration not stated)	inconclusive: 35.5 µM [inhibitor, single point]
O=C(/C=C/c1cccs1)N1CCc2ccccc21	inconclusive: 35.5 µM [inhibitor, single point]
O=C(Cc1cccc2ccccc12)NCC(=O)N1CCN(CC(=O)Nc2ccc(F)cc2)CC1	inactive
Cc1cccc(N2CCN(C(c3cccs3)c3nnnn3C(C)(C)C)CC2)c1C (configuration not stated)	inconclusive: 3.16 µM [inhibitor, single point]
O=C(Cn1cnc2cc([N+](=O)[O-])ccc2c1=O)Nc1ccccc1-c1ccccc1	inconclusive: 25.1 µM [inhibitor, partial curve, poor fit]
CCOCCCNC(=O)/C(C#N)=C/c1cc(Br)c(O)c(Br)c1	inconclusive: 10 µM [inhibitor, partial curve, poor fit]
Cn1c(CCNC(=O)c2ccc(Cl)c(Cl)c2)nnc1SCc1ccc(Cl)c(Cl)c1	inactive
CSc1ccc(CNC(=O)C2CCC(=O)N(Cc3cccc(F)c3)C2)cc1 (configuration not stated)	inconclusive: 35.5 µM [inhibitor, single point]
COc1ccccc1C(=O)Nc1cccc(C(=O)OCc2cc(=O)n3nc(C4CC4)sc3n2)c1	inactive
CN1CCN(c2ncnc3c2ncn3[C@H]2CN(Cc3ccc(-c4ccccc4)cc3)C[C@@H](CO)O2)CC1	inconclusive: 17.8 µM [inhibitor, single point]
O=[N+]([O-])c1cccc(-c2csc(Nc3ccccc3)n2)c1	inconclusive: 35.5 µM [inhibitor, single point]
COc1ccc(CCC(=O)Nc2nc3ccccc3[nH]2)cc1	inactive
CC1CCCN(CCCNC(=O)c2ccc3c(c2)N(Cc2cccc(Cl)c2)C(=O)c2ccccc2S3(=O)=O)C1 (configuration not stated)	inconclusive: 35.5 µM [inhibitor, single point]
CCCCOP(=O)(OCCCC)C(Nc1ccccc1)c1ccc2c(c1)OCO2 (configuration not stated)	inconclusive: 8.91 µM [inhibitor, partial curve, poor fit]
Cc1ccc(N(C(=O)c2csnn2)C(C(=O)NC2CCCCC2)c2ccco2)cc1 (configuration not stated)	inactive
Cc1ccc(SCC(=O)Nc2ccc(N3CCOCC3)cc2)cc1	inconclusive: 35.5 µM [inhibitor, single point]

Structure (SMILES)	Potency
CN(CC(=O)Nc1ccc(Cl)c(C(F)(F)F)c1)C(=O)C1(c2ccccc2)CC1	inconclusive: 22.4 µM [inhibitor, single point]
Nc1ccc(Oc2ccc3nc(-c4ccccc4)c(-c4ccc([N+](=O)[O-])cc4)nc3c2)cc1	inconclusive: 35.5 µM [inhibitor, single point]
COc1ccc(N=C2SC(C(N)=O)CC(=O)N2CCc2ccc(OC)c(OC)c2)cc1 (configuration not stated)	inconclusive: 0.501 µM [inhibitor, full curve]
CCN(CC)CCCNc1ncnc2ccccc12	inactive
Clc1ccccc1N1CCN(Cc2c[nH]c3ccccc23)CC1	active: 15.8 µM
COc1ccc([C@H]2CC(=O)C=C(c3ccc(-c4ccccc4)cc3)C2)cc1OC	inactive
COc1cccc(N2CCN(C(=O)c3cc4c(s3)-c3c(C)cccc3OC4)CC2)c1	inconclusive: 12.6 µM [inhibitor, single point]
Cc1ccc2nc(-c3ccc(N4C(=O)CC(N5CCN(CCO)CC5)C4=O)cc3)sc2c1 (configuration not stated)	inconclusive: 35.5 µM [inhibitor, single point]
Cc1[nH]n(-c2ccc(Cl)cc2)c(=O)c1N=Nc1cccnc1	inconclusive: 20 µM [inhibitor, single point]
COc1ccc(-c2nc(CN3CCN(C(=O)c4ccco4)CC3)c(C)o2)c(OC)c1C	inconclusive: 10 µM [inhibitor, partial curve, poor fit]
Cc1ccc(C(=O)NNC(=S)Nc2cccc3ccccc23)s1	inconclusive: 1.12 µM [inhibitor, partial curve, poor fit]
O=C(NCCN1C(=O)S/C(=C\c2ccc(F)cc2)C1=O)c1cccc(S(=O)(=O)N2CCOCC2)c1	inconclusive: 22.4 µM [inhibitor, single point]
Cc1ccc2c(c1)C1CN(C)CCC1N2C(=O)COc1ccc(N(C)C(=O)c2ccccc2)cc1 (configuration not stated)	inconclusive: 35.5 µM [inhibitor, single point]
Cc1ccc(NC(=O)CSCC(=O)N2CCOCC2)cc1	inconclusive: 2 µM [inhibitor, partial curve]
COc1ccc(Cl)cc1-c1nc(N)nc(N(C)C)n1	inconclusive: 3.55 µM [inhibitor, single point]
O=C(Cc1ccc([N+](=O)[O-])cc1)N1CCN=C1SCc1ccccc1	inactive
COc1ccc(CNC(=O)c2cc3cc4ccc(C)cc4nc3o2)cc1	inconclusive: 35.5 µM [inhibitor, single point]
Cc1[nH]c2ccccc2c1C(=O)C(=O)N1CCN(c2cccc(Cl)c2)CC1	inconclusive: 8.91 µM [inhibitor, partial curve]
O=c1cc(N2CCOCC2)[nH]c(=O)n1C1CCCCC1	inactive
CCc1ccc(C(=O)COC(=O)C(Cc2c[nH]c3ccccc23)NC(=O)c2ccc(CC)cc2)cc1 (configuration not stated)	inconclusive: 14.1 µM [inhibitor, partial curve, poor fit]
CCOC(=O)c1c(NC(=O)COc2ncnc3sccc23)sc2c1CCC2	inactive
N/C(COc1cc(Cl)cc(Cl)c1)=N\O	inactive
COc1ccc(CNC(=O)C2=C(C)C(=O)OC23CCCCC3)cc1OC	inconclusive: 1.12 µM [inhibitor, full curve, poor fit]

Structure (SMILES)	Potency
N#CC1=C2N=C(N)c3ccccc3N2C2=C(C(=O)CCC2)C1c1ccc(Cl)cc1 (configuration not stated)	inconclusive: 15.8 µM [inhibitor, single point]
O=C(NCc1ccc(Cl)c(Cl)c1)c1cc(C2CCCCN2C(=O)c2cccs2)on1 (configuration not stated)	inactive
C=CCOc1ccccc1CNc1ccc2c(c1)OCCO2	inconclusive: 6.31 µM [inhibitor, single point]
COc1ccccc1CCNC(=O)C(=O)NCCC1CCCCN1S(=O)(=O)c1ccccc1 (configuration not stated)	inactive
COC(=O)C1=CN(c2cccc(Cl)c2)C=C(C(=O)OC)C1c1cccc(OC)c1	inactive
CCC(C)NC(=O)Cn1cccc1C(=O)c1ccccc1 (configuration not stated)	inactive
Clc1ccc(Nc2nc(NCCN3CCOCC3)nc(N3CCOCC3)n2)cc1	inactive
Cc1cc(-c2nnc(SCC(=O)Nc3nc(-c4ccc(Cl)cc4)cs3)o2)no1	inactive
O=C(NC1=NCCS1)c1ccccc1Br	inactive
COC(=O)c1ccccc1NC(=O)COC(=O)/C=C/c1ccco1	inconclusive: 6.31 µM [inhibitor, single point]
Cc1cc(C)cc(NS(=O)(=O)c2ccc(NC(=S)NC(=O)c3ccc(Br)o3)cc2)c1	inconclusive: 25.1 µM [inhibitor, single point]
COc1ccc([C@H]2/C=C\CN(S(=O)(=O)/C=C/c3ccccc3)[C@@H](C)C(=O)N2Cc2ccc(F)cc2)cc1	inconclusive: 5.62 µM [inhibitor, single point]
COCCNC(=O)/C(C#N)=C\c1ccc(CNC(=O)C(=O)Nc2ccc(C)c(C)c2)o1	inactive
COc1cc(O)c(CC=C(C)C)c(O)c1C(=O)CCc1ccc(O)cc1	inconclusive: 22.4 µM [inhibitor, single point]
CCc1nc2c(OCC=C(C)C)cccn2c1N(C)C(=O)c1ccccc1F	inactive
Cc1cc(C)cc(NC(=O)CSc2nc3c([nH]c4ccccc43)c(=O)n2-c2ccc(F)cc2)c1	inconclusive: 10 µM [inhibitor, partial curve]
FC(F)(F)c1cccc(-c2cc3ccccc3nc2N2CCCC2)c1	inconclusive: 3.55 µM [inhibitor, partial curve]
CCOc1ccccc1C(=O)Nc1cc(=O)n(C)c(=O)n1C	inactive
Cc1cccc(CNC(=O)c2ccc3nc(Cc4ccccc4F)oc3c2)n1	inconclusive: 35.5 µM [inhibitor, partial curve, poor fit]
CCOC(=O)c1c(CC(C)C)csc1/N=C/C1=C(O)CCCC1=O	inconclusive: 35.5 µM [inhibitor, single point]
C#CCN(C[C@@H]1[C@@H](OC(=O)NCc2ccccc2)[C@@H](OC(=O)NCc2ccccc2)CN(C(=O)OC(C)C)N1C(=O)OC(C)C)S(=O)(=O)c1ccc(C)cc1	inconclusive: 15.8 µM [inhibitor, partial curve, poor fit]

— PubChem BioAssay AID588855 (National Center for Advancing Translational Sciences (NCATS), 2011)
